6 cell lines from the supplement of paper PMC4967469 can be followed below.

A lower IC50 marks a more sensitive line; a fit beyond the top or the lowest dose is shown as a bound at that dose. AUC sums up the same curve from the lowest dose to the 256-fold higher top dose; it is 1 without any effect and falls as sensitivity rises. For part of these data: Any top dose called inferred is not printed in the source and was worked back from the curve model. For part of these data: Where an entry number is given, a second screen of the drug exists; the two often differ.

Common to all, as to assay: Viability of human cancer cell lines after 72 h of drug (GDSC screen)
Compound in one experiment: NC(=O)c1cccc(-c2cc(Nc3ccc(OC(F)(F)F)cc3)ncn2)c1 [GNF-2]
To be noted: top dose 1.28 µM; top dose inferred. As for the experimental part:
(§1)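 Human cancer cell lines in 384-well plates, medium with 10% serum, drug for 72 h over a 256-fold dose range (nine 2-fold or five 4-fold steps up to the top dose). Adherent lines were fixed and stained with the nucleic acid dye Syto60, suspension lines read with resazurin; signal relative to control wells, capped at 0 and 100%. One two-parameter sigmoid per drug and line, fitted in a mixed model over all curves with the slope shared within a line.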

Compound in another experiment: O=S(=O)(c1ccccc1)N(CC(F)(F)F)c1ccc(C(O)(C(F)(F)F)C(F)(F)F)cc1 [T0901317]
The settings on record: top dose 10.24 µM; top dose inferred. As for the experimental part: as §1

Compound in the next experiment: Cc1ccc(Nc2cc(-c3cccc(N4C(=O)c5ccccc5C4=O)c3)ncn2)cc1NS(C)(=O)=O [KIN001-270]
The settings on record: top dose 20 µM; top dose inferred. As for the experimental part:
as §1

Compound in the next experiment: CC(O)(CS(=O)(=O)c1ccc(F)cc1)C(=O)Nc1ccc(C#N)c(C(F)(F)F)c1 [Bicalutamide]
The settings on record: top dose inferred. As for the experimental part: as §1

Compound in another experiment: Nc1ccn([C@@H]2O[C@H](CO)[C@@H](O)C2(F)F)c(=O)n1 [Gemcitabine]
The settings on record: top dose 1.024 µM. The procedure:
as §1

Compound in the next experiment: Cc1cn(-c2cc(NC(=O)c3ccc(C)c(Nc4nccc(-c5cccnc5)n4)c3)cc(C(F)(F)F)c2)cn1 [Nilotinib]
To be noted: top dose 2 µM. The procedure: as §1

Compound in the next experiment: S=C(NCc1ccc2c(c1)OCO2)N1CCN(c2ncnc3c2oc2ccccc23)CC1 [MP470]
The settings on record: top dose 20 µM; top dose inferred. As for the experimental part: as §1

Compound in another experiment: CCNC(=O)c1noc(-c2cc(C(C)C)c(O)cc2O)c1-c1ccc(CN2CCOCC2)cc1 [AUY922]
To be noted: top dose 0.256 µM; top dose inferred. The procedure: as §1

Compound in a further experiment: C/C(O)=C(\C#N)C(=O)Nc1cc(Br)ccc1Br [LFM-A13]
To be noted: top dose 16 µM; top dose inferred. As for the experimental part:
as §1

Compound in another experiment: CC(C)c1ccccc1Cc1cc(C(=O)Nc2ccc(S(=O)(=O)c3ccccc3C(C)(C)C)cc2)c(O)c(O)c1O [TW-37]
To be noted: top dose 5 µM. The procedure: as §1

[1] abbreviates: top dose 1.024 µM, screen: GDSC drug entry 150.
The mark [2] stands for this setting: top dose 10 µM, screen: GDSC drug entry 1502.

One may read the IC50 as the concentration at which inhibition is half-maximal. For MRK-nu-1 (breast, suspension), the AUC with GNF-2 stood at 0.957; with T0901317, 0.99; with KIN001-270, 0.965; in the experiment with Bicalutamide (setting [1]), 0.98; with Bicalutamide (setting [2]), 0.988; with Gemcitabine, 0.26. Also, the AUC is 0.984 with Nilotinib; 0.851 with MP470; 0.416 in the experiment with AUY922; 0.983 with LFM-A13; 0.911 with TW-37. For the same cell line, the IC50 in the experiment with GNF-2 is > 1.28 µM; in the experiment with T0901317 it was > 10.2 µM; in the experiment with KIN001-270 it was > 20 µM; in the experiment with Bicalutamide (setting [1]), > 1.02 µM; with Bicalutamide (setting [2]), > 10 µM; with Gemcitabine, 0.0142 µM. The half-inhibitory concentration (IC50) is > 2 µM in the experiment with Nilotinib; 13.5 µM in the experiment with MP470; 0.00959 µM with AUY922; > 16 µM in the experiment with LFM-A13; > 5 µM in the experiment with TW-37.

Becker (glioma, adherent): the AUC was determined as 0.983 in the experiment with GNF-2; 0.963 with T0901317; 0.97 with KIN001-270; 0.982 with Bicalutamide (setting [1]); 0.971 with Bicalutamide (setting [2]); 0.637 with Gemcitabine. Further, the AUC with Nilotinib stood at 0.975; with MP470, 0.919; with AUY922, 0.493; in the experiment with LFM-A13, 0.961; with TW-37, 0.498. For the same cell line, the IC50 in the experiment with GNF-2 is > 1.28 µM; in the experiment with T0901317, > 10.2 µM; in the experiment with KIN001-270, > 20 µM; with Bicalutamide (setting [1]), > 1.02 µM; in the experiment with Bicalutamide (setting [2]), > 10 µM; with Gemcitabine, 0.161 µM. Moreover, the IC50 is > 2 µM with Nilotinib; > 20 µM with MP470; 0.0153 µM with AUY922; > 16 µM with LFM-A13; 0.309 µM in the experiment with TW-37.

Regarding SW684 (fibrosarcoma, adherent), the AUC with GNF-2 came to 0.972; with T0901317 it was 0.97; with KIN001-270, 0.983; with Bicalutamide (setting [1]), 0.977; with Bicalutamide (setting [2]), 0.98; in the experiment with Gemcitabine it was 0.983. The AUC is 0.983 in the experiment with Nilotinib; 0.909 with MP470; 0.755 with AUY922; 0.897 with LFM-A13; 0.674 with TW-37. Moreover, the IC50 in the experiment with GNF-2 is > 1.28 µM; with T0901317, > 10.2 µM; with KIN001-270, > 20 µM; with Bicalutamide (setting [1]) it was > 1.02 µM; in the experiment with Bicalutamide (setting [2]) it was > 10 µM; in the experiment with Gemcitabine, > 1.02 µM. Moreover, the IC50 with Nilotinib was > 2 µM; with MP470 it was > 20 µM; with AUY922, 0.125 µM; with LFM-A13, > 16 µM; with TW-37, 1.2 µM.

Turning to VA-ES-BJ (soft tissue, adherent), the AUC with GNF-2 amounted to 0.981; with T0901317 it was 0.974; with KIN001-270, 0.976; with Bicalutamide (setting [1]), 0.983; with Bicalutamide (setting [2]), 0.956; with Gemcitabine it was 0.197. Moreover, the AUC with Nilotinib was determined as 0.961; with MP470, 0.931; with AUY922, 0.555; in the experiment with LFM-A13 it was 0.917; with TW-37 it was 0.362. The IC50 with GNF-2 was > 1.28 µM; with T0901317 it was > 10.2 µM; with KIN001-270, > 20 µM; with Bicalutamide (setting [1]), > 1.02 µM; in the experiment with Bicalutamide (setting [2]) it was > 10 µM; in the experiment with Gemcitabine, 0.00755 µM. In addition, the IC50 with Nilotinib is > 2 µM; in the experiment with MP470 it was > 20 µM; with AUY922, 0.0228 µM; in the experiment with LFM-A13, > 16 µM; in the experiment with TW-37, 0.127 µM.

For CHP-126 (neuroblastoma, suspension), the AUC in the experiment with GNF-2 stood at 0.987; with T0901317, 0.963; with KIN001-270, 0.983; with Bicalutamide (setting [1]), 0.982; with Bicalutamide (setting [2]), 0.986; with Gemcitabine it was 0.392. Moreover, the AUC was determined as 0.987 in the experiment with Nilotinib; 0.876 with MP470; 0.713 with AUY922; 0.941 with LFM-A13; 0.575 in the experiment with TW-37. Moreover, the IC50 in the experiment with GNF-2 is > 1.28 µM; with T0901317, > 10.2 µM; with KIN001-270, > 20 µM; with Bicalutamide (setting [1]) it was > 1.02 µM; with Bicalutamide (setting [2]), > 10 µM; in the experiment with Gemcitabine, 0.032 µM. Further, the IC50 is > 2 µM with Nilotinib; > 20 µM with MP470; 0.0653 µM with AUY922; > 16 µM with LFM-A13; 0.503 µM with TW-37.

COLO-684 (endometrium, suspension): the AUC with GNF-2 came out at 0.974; with T0901317, 0.942; with KIN001-270 it was 0.948; with Bicalutamide (setting [1]) it was 0.981; with Bicalutamide (setting [2]) it was 0.983; with Gemcitabine, 0.418. Further, the AUC with Nilotinib worked out at 0.982; in the experiment with MP470 it was 0.914; with AUY922 it was 0.659; with LFM-A13, 0.973; in the experiment with TW-37, 0.429. In addition, the IC50 with GNF-2 was > 1.28 µM; with T0901317 it was > 10.2 µM; in the experiment with KIN001-270 it was > 20 µM; with Bicalutamide (setting [1]), > 1.02 µM; with Bicalutamide (setting [2]) it was > 10 µM; in the experiment with Gemcitabine, 0.037 µM. Besides, the IC50 with Nilotinib is > 2 µM; in the experiment with MP470, > 20 µM; with AUY922 it was 0.0468 µM; with LFM-A13, > 16 µM; with TW-37, 0.195 µM.
